Reference: the supplement of paper PMC7826260
The list shows a part of the results. Cleavage of a single-stranded DNA pool by Rep nickase domains was read by sequencing (3 µM enzyme, 1 h, 37 °C); shown is the middle of each 90-letter strand. A value is the log2 ratio of uncut reads to the pool without enzyme; strong cutting gives strongly negative numbers. There is no active / inactive call. The scaling is to total reads, so uncut sequences can rise above 0 when many others are cut.

Key:
Experiment in all cases: uncleaved DNA left, log2 of reads against the no-enzyme library (log2 ratio); higher = less cleavage (more negative = more Rep cleavage of the k-mer); sequences stand for … in CTCGTCCG…ACCGGAGA
[1] = tested on: T1, Rep nickase domain of Muscovy duck circovirus
T1 sequence (residues 1-111 of Rep, tag left off): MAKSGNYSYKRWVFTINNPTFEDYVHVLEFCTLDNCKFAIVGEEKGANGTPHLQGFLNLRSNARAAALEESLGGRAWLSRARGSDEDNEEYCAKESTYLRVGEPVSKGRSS
Experimental: (§1)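 A pool of 90-nt single-stranded DNAs with seven random bases just before the constant AC of the nick site (name = the seven bases) was cut by 3 µM recombinant His6-SUMO-tagged Rep nickase domain (300 nM DNA, 50 mM HEPES pH 8.0, 50 mM NaCl, 1 mM MnCl2, 1 h, 37 °C, three replicates). Uncut DNA was amplified and sequenced.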

[2] = tested on: T2, Rep nickase domain of banana bunchy top virus
T2 sequence (residues 1-94 of Rep, tag left off): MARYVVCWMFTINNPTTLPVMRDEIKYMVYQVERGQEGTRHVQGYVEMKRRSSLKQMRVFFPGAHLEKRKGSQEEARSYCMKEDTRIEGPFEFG
Experimental: as §1

[3] = tested on: T3, Rep nickase domain of cabbage leaf curl virus
T3 sequence (residues 1-116 of Rep, tag left off): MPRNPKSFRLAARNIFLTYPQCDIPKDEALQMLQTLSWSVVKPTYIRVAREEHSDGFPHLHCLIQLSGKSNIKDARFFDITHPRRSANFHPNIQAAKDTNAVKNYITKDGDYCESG
Experimental: as §1

[4] = tested on: T4, Rep nickase domain of chickpea chlorotic dwarf virus
T4 sequence (residues 1-124 of Rep, tag left off): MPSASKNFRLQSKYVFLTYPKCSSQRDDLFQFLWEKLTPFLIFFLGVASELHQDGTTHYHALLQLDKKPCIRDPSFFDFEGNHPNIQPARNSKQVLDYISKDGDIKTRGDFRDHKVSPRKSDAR
Experimental: as §1

[5] = tested on: T5, Rep nickase domain of faba bean necrotic yellows virus
T5 sequence (residues 1-98 of Rep, tag left off): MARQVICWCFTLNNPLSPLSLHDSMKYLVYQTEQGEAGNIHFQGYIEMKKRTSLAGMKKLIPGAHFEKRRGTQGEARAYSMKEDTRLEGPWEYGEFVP
Experimental: as §1

[6] = tested on: T6, Rep nickase domain of maize striate mosaic virus
T6 sequence (residues 1-117 of Rep, tag left off): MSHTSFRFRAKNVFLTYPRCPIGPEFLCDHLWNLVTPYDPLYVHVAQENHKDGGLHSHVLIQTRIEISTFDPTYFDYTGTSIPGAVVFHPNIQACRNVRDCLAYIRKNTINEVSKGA
Experimental: as §1

[7] = tested on: T7, Rep nickase domain of porcine circovirus 2
T7 sequence (residues 2-116 of Rep, tag left off): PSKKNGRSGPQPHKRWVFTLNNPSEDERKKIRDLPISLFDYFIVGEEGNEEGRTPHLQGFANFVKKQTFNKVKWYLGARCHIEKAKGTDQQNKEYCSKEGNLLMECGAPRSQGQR
Experimental: as §1

[8] = tested on: T8, Rep nickase domain of tomato golden mosaic virus
T8 sequence (residues 1-124 of Rep, tag left off): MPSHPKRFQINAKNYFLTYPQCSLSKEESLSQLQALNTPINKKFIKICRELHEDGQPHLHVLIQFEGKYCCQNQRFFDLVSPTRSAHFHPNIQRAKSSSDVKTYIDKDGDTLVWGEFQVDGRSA
Experimental: as §1

[9] = tested on: T9, Rep nickase domain of tomato yellow leaf curl virus
T9 sequence (residues 1-136 of Rep, tag left off): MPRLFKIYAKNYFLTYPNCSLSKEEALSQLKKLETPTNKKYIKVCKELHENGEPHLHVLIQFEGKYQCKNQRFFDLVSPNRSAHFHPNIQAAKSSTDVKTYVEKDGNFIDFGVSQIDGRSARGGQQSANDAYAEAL
Experimental: as §1

[10] = tested on: T10, Rep nickase domain of wheat dwarf virus
T10 sequence (residues 1-137 of Rep, tag left off): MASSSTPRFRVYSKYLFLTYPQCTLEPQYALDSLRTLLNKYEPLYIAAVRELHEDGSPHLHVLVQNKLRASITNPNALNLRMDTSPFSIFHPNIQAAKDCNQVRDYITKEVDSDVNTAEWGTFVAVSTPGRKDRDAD
Experimental: as §1

ATAGTTG was tested, and the “uncleaved DNA left (log2)” value [1] was -0.0131, the “uncleaved DNA left (log2)” value [2] was 0.0358 and the “uncleaved DNA left (log2)” value [3] was -0.211. The “uncleaved DNA left (log2)” value [4] was -0.0216, the “uncleaved DNA left (log2)” value [5] was -0.0752 and the “uncleaved DNA left (log2)” value [6] was -0.612. The “uncleaved DNA left (log2)” value [7] was 0.0728, the “uncleaved DNA left (log2)” value [8] was 0.0895 and the “uncleaved DNA left (log2)” value [9] was -0.0769. For the same sequence, the “uncleaved DNA left (log2)” value [10] was -0.0853.

For GCCACGC, the “uncleaved DNA left (log2)” value [1] was -0.0436, the “uncleaved DNA left (log2)” value [2] was -0.0755 and the “uncleaved DNA left (log2)” value [3] was -0.0798. The “uncleaved DNA left (log2)” value [4] was 0.0415, the “uncleaved DNA left (log2)” value [5] was -0.0973 and the “uncleaved DNA left (log2)” value [6] was -0.534. For the same sequence, the “uncleaved DNA left (log2)” value [7] was 0.136, the “uncleaved DNA left (log2)” value [8] was 0.0276 and the “uncleaved DNA left (log2)” value [9] was -0.0673. The “uncleaved DNA left (log2)” value [10] was -0.0866.

In the case of TACAGGC, the “uncleaved DNA left (log2)” value [1] is reported as 0.193, the “uncleaved DNA left (log2)” value [2] is reported as 0.0243 and the “uncleaved DNA left (log2)” value [3] is reported as 0.152. The “uncleaved DNA left (log2)” value [4] was 0.0507, the “uncleaved DNA left (log2)” value [5] was 0.0945 and the “uncleaved DNA left (log2)” value [6] was -0.645. For the same sequence, the “uncleaved DNA left (log2)” value [7] was 0.0926, the “uncleaved DNA left (log2)” value [8] was 0.0918 and the “uncleaved DNA left (log2)” value [9] was 0.135. The “uncleaved DNA left (log2)” value [10] was 0.0625.

With TTATATC the “uncleaved DNA left (log2)” value [1] was -0.00732, the “uncleaved DNA left (log2)” value [2] was 0.038 and the “uncleaved DNA left (log2)” value [3] was -0.134. For the same sequence, the “uncleaved DNA left (log2)” value [4] was -0.434, the “uncleaved DNA left (log2)” value [5] was 0.0239 and the “uncleaved DNA left (log2)” value [6] was -0.339. For the same sequence, the “uncleaved DNA left (log2)” value [7] was 0.011, the “uncleaved DNA left (log2)” value [8] was 0.036 and the “uncleaved DNA left (log2)” value [9] was 0.171. For the same sequence, the “uncleaved DNA left (log2)” value [10] was 0.111.

In the case of ATCTCCG, the “uncleaved DNA left (log2)” value [1] is reported as 0.131, the “uncleaved DNA left (log2)” value [2] is reported as 0.0606 and the “uncleaved DNA left (log2)” value [3] is reported as -0.832. The “uncleaved DNA left (log2)” value [4] was -0.791, the “uncleaved DNA left (log2)” value [5] was 0.0081 and the “uncleaved DNA left (log2)” value [6] was -1.01. For the same sequence, the “uncleaved DNA left (log2)” value [7] was 0.115, the “uncleaved DNA left (log2)” value [8] was 0.0049 and the “uncleaved DNA left (log2)” value [9] was -0.0178. The “uncleaved DNA left (log2)” value [10] was -0.12.

For GGGAAAT, the “uncleaved DNA left (log2)” value [1] was 0.175, the “uncleaved DNA left (log2)” value [2] was 0.213 and the “uncleaved DNA left (log2)” value [3] was 0.968. For the same sequence, the “uncleaved DNA left (log2)” value [4] was 2.24, the “uncleaved DNA left (log2)” value [5] was 0.133 and the “uncleaved DNA left (log2)” value [6] was 2.36. The “uncleaved DNA left (log2)” value [7] was 0.27, the “uncleaved DNA left (log2)” value [8] was 0.0462 and the “uncleaved DNA left (log2)” value [9] was 0.057. The “uncleaved DNA left (log2)” value [10] was 0.241.

With GAAGGCT the “uncleaved DNA left (log2)” value [1] was -0.0132, the “uncleaved DNA left (log2)” value [2] was -0.00811 and the “uncleaved DNA left (log2)” value [3] was 0.155. For the same sequence, the “uncleaved DNA left (log2)” value [4] was 0.178, the “uncleaved DNA left (log2)” value [5] was -0.0925 and the “uncleaved DNA left (log2)” value [6] was 0.805. The “uncleaved DNA left (log2)” value [7] was -0.0101, the “uncleaved DNA left (log2)” value [8] was -0.0376 and the “uncleaved DNA left (log2)” value [9] was -0.0906. The “uncleaved DNA left (log2)” value [10] was 0.0193.
